From PMC6212790
The other results are listed elsewhere or left out. At the low end of the ranking the order means little.

Target: T1, GST-Rok-C97-191 (UniProt O34857)
T1 sequence: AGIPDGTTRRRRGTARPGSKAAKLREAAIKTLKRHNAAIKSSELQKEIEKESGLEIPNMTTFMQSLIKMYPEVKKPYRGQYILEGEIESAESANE
Experiment: protein binding microarray;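 also: rank score from −0.5 (least bound) to 0.5 (best bound)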
Conditions: Rok is a gene silencer of Bacillus subtilis; high values mean tight binding; most listed sequences are background and not binding sites; double strand, one strand shown

Sequence | binding signal [E-score]
AGGCACCC | -0.15
CATTGTCG | -0.0906
TCTACGAA | 0.163
CCCCGCTC | -0.0979
GAGCTGCC | 0.0253
ATCGCGTA | 0.169
CTATTCCC | -0.00501
GTTCCTGA | -0.0326
AACCTTGT | -0.0394
GTGGATTA | 0.043
CCGGATCA | -0.0842
TCCCCGAA | -0.174
TCCACTCA | -0.127
CCGGTAAC | -0.0286
GCATGGTA | 0.176
ACGAGCTG | -0.107
AAATAGCG | 0.13
ATGCACAG | -0.0539
AGTGTGAG | 0.0718
ACAGTGTA | 0.189
GCACTCTA | 0.0351
TCCTCCCA | -0.194
ACGATATA | 0.254
CGACACGC | -0.119
GCCACACC | -0.0569

Sequence | binding signal [E-score]
ACCCAAAG | -0.178
AACGCCAC | -0.199
GTGCTCAA | -0.219
AGTCCAGC | -0.059
ATTTGGGG | -0.231
GTTAACCA | 0.089
GCCCGGCA | -0.11
AGCTTTAG | -0.00686
CATAGCAA | 0.217
CTACCGCA | 0.159
GGGCCAAA | 0.0145
GAAAGTCA | -0.0265
GCATCCTA | 0.129
GTCTTAGA | -0.0417
GAAATAGA | 0.162
ATCACCGA | -0.193
CGAGACCA | -0.3
CTCCTTCA | -0.156
ATTCCGTC | -0.0499
CACAGGCA | -0.142
AGCAAGGC | -0.185
AGTCCCCC | -0.336
GGACCGAC | -0.132
ACATCCAA | 0.0324
ACTCAAAC | -0.0678

Sequence | binding signal [E-score]
GGTGGTAA | 0.17
CATTCCGG | 0.16
CATCGTAA | 0.115
ATGATCAT | 0.251
GTTTTCGA | 0.0807
CCCTCGCC | -0.239
CAGATAGG | 0.0813
GTACGAAC | -0.0337
AGTATCTG | 0.198
ATCCAGTA | 0.14
CTGAGTTA | 0.131
CTAATCAA | 0.0936
CGATACAA | 0.147
CGCTTTCA | 0.0312
CTCGAACC | -0.129
GCCTAGGC | -0.309
GCGGCTCC | -0.366
CAGCATAC | 0.0167
ACACGTAA | 0.0742
AGAGGAGA | -0.0752
GCGTCACC | -0.285
ATCCACGG | -0.135
GTTGGCGA | 0.0266
CTATAATC | 0.222
CCGTACCG | -0.144

Sequence | binding signal [E-score]
ATGTGATG | -0.0349
GCTGGTGA | -0.0713
CTCGCGCA | 0.0104
ACGACTCG | -0.0368
AAACGGCT | -0.113
AAGCCTCT | -0.104
AAGGAGAC | -0.265
GCCGGTAA | -0.0519
AGCAGTAT | 0.0236
GGCGTCGA | -0.184
ATTATTGA | 0.141
CTGGCTCA | -0.0492
CTGTAGAA | 0.258
AAATCTCT | 0.168
GCTCTCTA | -0.132
ATACGGCC | -0.159
GACATACA | 0.0185
CGGCTATC | 0.000392
ATCTCTCA | 0.14
GAGTGCGC | -0.179
GAGATCCA | -0.0168
AATGTCCC | -0.143
CTATCAAA | 0.176
AGCAAAAC | -0.1
ATAATATG | 0.244

Sequence | binding signal [E-score]
CTACCTTA | 0.264
CAGCGACC | -0.105
ACGGGGCA | -0.208
AGCTAACC | -0.0997
CACTTGAG | 0.0882
GAAGAATC | 0.0848
GGACCTCA | -0.337
CAGTTAAA | 0.272
CAGAGTGA | -0.0342
ATGGTGGG | -0.258
CCAGCGGC | -0.238
GCAAGCGC | -0.213
AGGAGGCA | -0.267
GGTTTAGA | 0.215
GCGCCGCA | -0.333
ACGAATAT | 0.241
GCTTCGTA | -0.12
CACTGCCA | -0.134
GATATCCA | 0.0457
ATCTGAAT | 0.104
ACGAGGAT | -0.145
CTAGCAGA | 0.16
ATTCGAAT | 0.156
ACGTGTGC | -0.0201
ACTGGGAA | -0.0335

Sequence | binding signal [E-score]
CCCGAATC | -0.139
GTATAACA | 0.141
GAGGTACA | 0.0875
ACTATCAA | 0.253
AAGTGACC | -0.126
ATGGAAGA | -0.0605
ATTATTCA | 0.199
GTGGCCGA | -0.0542
AGGTGGAT | -0.111
ACATCAAT | 0.0564
ATACCTTC | 0.0592
CATGTTTC | 0.128
ACGGGGGA | -0.23
AGCTAGGG | -0.0587
ACAATGGA | -0.0232
AAAATACA | 0.32
ACCCACGC | -0.144
AGGAGTAC | -0.15
CGTAATAG | 0.247
CAACGGGG | -0.142
CCTTCCAC | -0.141
AAGGGGGT | -0.376
ATGCTCCG | -0.113
AGCAGTCC | -0.0761
TATACAGA | 0.267

Sequence | binding signal [E-score]
CACTAAAG | 0.12
GAGTACAA | 0.136
ATCCGTGC | -0.0679
TACCAGCA | 0.0302
TATGAAGA | 0.0351
AGTCATAG | 0.16
CATCTCAC | -0.153
ATCGTGTA | 0.198
AGTTTCTA | 0.389
GGGACTAC | -0.0206
GAGCTTGC | -0.0383
AATAACTA | 0.308
CTTAGTAC | 0.221
AGCACCTC | -0.174
AGCGGTAA | 0.0531
ATGTTAGG | -0.0286
ACATAAGA | 0.0818
AATCTCCT | 0.175
GAGGGAGA | -0.137
GACCAAAA | -0.0726
AACACAAG | -0.0133
TAGATCTA | 0.298
